Measured values from PubChem BioAssay (NCATS).
Several values for one entry are separate records, joined by “and”; a condition that tells them apart may be missing. Identical values can stand only once. The shares of active, inactive and inconclusive entries below differ from those in the screen. For part of these data: Where the call is inconclusive, the potency comes from a doubtful curve fit. Activity calls are given as the source filed them. Calls come from the whole dose curve; as a rule, active = well fitted curve in the direction sought with a large enough effect; inconclusive = small, poorly fitted or top-dose-only effect, or another doubt; inactive = no such curve, though single readings can be large; an effect the other way counts as inactive or inconclusive.

Legend:
[1] = qHTS of pediatric cancer cell lines to identify multiple opportunities for drug repurposing: Primary screen for A673 cells (AID 1347092); conditions: A673 Ewing sarcoma viability, CellTiter-Glo ATP luminescence, 48 h; activity change, negative = cytotoxic: at 46 µM (top of the series) unless noted; note: nearly all actives have a fitted effect of over 45% in size; note: potency is the fitted concentration of half-maximal effect
Outline: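 Luminescence from CellTiter-Glo, taken after 15 min at room temperature, served as the proxy for metabolically active cells following 48 h treatment. Both potency and efficacy were taken from curves fitted to the titration data.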

[2] = qHTS of pediatric cancer cell lines to identify multiple opportunities for drug repurposing: Primary screen for SK-N-MC cells (AID 1347093); conditions: SK-N-MC viability, CellTiter-Glo luminescence, 48 h; activity change, negative = cytotoxic: at 46 µM (top of the series); note: potency is the fitted concentration of half-maximal effect
Outline: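 Metabolically active cells were quantified by ATP-dependent luminescence (CellTiter-Glo, 15 min at room temperature) following 48 h treatment. Cells had been plated at 500-1,000 per well and settled for 5 h beforehand.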

[3] = qHTS of pediatric cancer cell lines to identify multiple opportunities for drug repurposing: Primary screen for BT-37 cells (AID 1347094); note: potency is the fitted concentration of half-maximal effect
Outline: (§1)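 Primary screen of approved and investigational compounds on cells in growth media at 37 degrees C, 5% CO2. MIPE set at 11-point and NPC set at 8-point dilutions; viability scored by ATP-based luminescence at 48 hours.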

[4] = qHTS of pediatric cancer cell lines to identify multiple opportunities for drug repurposing: Primary screen for NB-EBc1 cells (AID 1347095); note: potency is the fitted concentration of half-maximal effect
Outline: as §1

[5] = qHTS of pediatric cancer cell lines to identify multiple opportunities for drug repurposing: Primary screen for U-2 OS cells (AID 1347096); note: nearly all actives have a fitted effect of over 50% in size; note: potency is the fitted concentration of half-maximal effect
Outline: (§2)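 Cells (500-1,000/well) rested 5 h, then received compounds for 48 h; metabolically active cells were measured by CellTiter-Glo luminescence. Final concentrations spanned up to 46 µM (MIPE, 11-point) or 0.59 nM-46 µM (NPC, 8-point) in primary screens, 11-point in follow-ups.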

[6] = qHTS of pediatric cancer cell lines to identify multiple opportunities for drug repurposing: Primary screen for Saos-2 cells (AID 1347097); conditions: Saos-2 viability, CellTiter-Glo ATP luminescence, 48 h; activity change, negative = cytotoxic: at 46 µM (top of the series); note: potency is the fitted concentration of half-maximal effect; nearly all actives have a fitted effect of over 40% in size
Outline: as §1

[7] = qHTS of pediatric cancer cell lines to identify multiple opportunities for drug repurposing: Primary screen for SK-N-SH cells (AID 1347098); note: potency is the fitted concentration of half-maximal effect; nearly all actives have a fitted effect of over 65% in size
Outline: as §2

[8] = qHTS of pediatric cancer cell lines to identify multiple opportunities for drug repurposing: Primary screen for BT-12 cells (AID 1347101); note: potency is the fitted concentration of half-maximal effect; nearly all actives have a fitted effect of over 25% in size
Outline: as §2

[9] = qHTS of pediatric cancer cell lines to identify multiple opportunities for drug repurposing: Primary screen for NB1643 cells (AID 1347099); note: nearly all actives have a fitted effect of over 50% in size
Outline: as §1

[10] = qHTS of pediatric cancer cell lines to identify multiple opportunities for drug repurposing: Primary screen for LAN-5 cells (AID 1347100); conditions: LAN-5 neuroblastoma viability, CellTiter-Glo luminescence, 48 h; activity change, negative = cytotoxic: at 46 µM (top of the series); note: potency is the fitted concentration of half-maximal effect
Outline: as §2
Tags give direction and shape of the fitted curve.

Row | SMILES | Potency [1] | Potency [2] | Potency [3] | Potency [4] | Potency [5] | Potency [6] | Potency [7] | Potency [8] | Potency [9] | Potency [10]
1 | Cc1cc2c(s1)Nc1ccccc1N=C2N1CCN(C)CC1 | inconclusive: 33.5 µM [cytotoxic, single point] | inactive |  |  |  |  |  |  |  | 
2 | C[C@H](Cc1ccc(O)c(O)c1)[C@@H](C)Cc1ccc(O)c(O)c1 | inconclusive: 9.35 µM [cytotoxic, single point] | active: 11.8 µM | inconclusive: 24.3 µM [cytotoxic, partial curve] | active: 2.35 µM | inconclusive: 23.5 µM [cytotoxic, single point] |  |  |  |  | 
3 | O=C1NC(=O)C(=Cc2ccc(-c3ccc(F)cc3)o2)S1 | inconclusive: 29.6 µM [cytotoxic, single point] | inconclusive: 18.7 µM [cytotoxic, partial curve, poor fit] | inconclusive: 15.3 µM [cytotoxic, partial curve] | inconclusive: 3.72 µM [cytotoxic, partial curve] |  | inconclusive: 20.9 µM [cytotoxic, partial curve] | inconclusive: 7.64 µM [cytotoxic, partial curve] | inconclusive: 4.85 µM [cytotoxic, full curve] |  | 
4 | CSc1ccc2c(c1)C(N1CCN(C)CC1)Cc1ccccc1S2 (stereo unspecified) | inconclusive: 21.1 µM [cytotoxic, single point] | inconclusive: 33.5 µM [cytotoxic, single point] | inconclusive: 21.9 µM [cytotoxic, single point] |  | inactive | inconclusive: 26.6 µM [cytotoxic, single point] |  | inconclusive: 27.6 µM [cytotoxic, single point] | inactive | inconclusive: 23.7 µM [cytotoxic, single point]
5 | CN1CCC(=C2c3ccccc3CCc3sccc32)CC1 | inconclusive: 23.5 µM [cytotoxic, single point] and inconclusive: 26.6 µM [cytotoxic, single point] | inconclusive: 33.5 µM [cytotoxic, single point] | inconclusive: 43.2 µM [cytotoxic, partial curve, poor fit] and inconclusive: 15.5 µM [cytotoxic, partial curve, poor fit] | inactive |  | inconclusive: 23.7 µM [cytotoxic, partial curve, poor fit] | active: 13.6 µM and inconclusive: 30.7 µM [cytotoxic, single point] | inconclusive: 30.6 µM [cytotoxic, single point] and inconclusive: 24.6 µM [cytotoxic, single point] |  | inconclusive: 37.2 µM [cytotoxic, single point]
6 | Cc1ccc(C(=O)c2ccc(CC(=O)O)n2C)cc1 | inactive |  |  |  |  |  |  |  |  | 
7 | CCc1cccc(N(C)C(N)=Nc2cccc3ccccc23)c1 | inconclusive: 33.5 µM [cytotoxic, partial curve, poor fit] | inconclusive: 21.1 µM [cytotoxic, partial curve, poor fit] | inconclusive: 21.9 µM [cytotoxic, partial curve, poor fit] |  | inconclusive: 21.1 µM [cytotoxic, partial curve, poor fit] | active: 18.8 µM | inconclusive: 38.6 µM [cytotoxic, single point] | inconclusive: 15.5 µM [cytotoxic, partial curve, poor fit] |  | 
8 | c1ccc2c(Cc3c[nH]c4ccccc34)c[nH]c2c1 | active: 2.35 µM | active: 0.833 µM | inconclusive: 27.3 µM [cytotoxic, partial curve] | inconclusive: 33.2 µM [cytotoxic, single point] |  | active: 18.7 µM |  | inconclusive: 30.6 µM [cytotoxic, single point] |  | 
9 | CS(=O)(=O)c1ccc(-c2cn3ccccc3n2)cc1 | inconclusive: 33.5 µM [cytotoxic, single point] | inconclusive: 8.41 µM [cytotoxic, partial curve] | inconclusive: 11 µM [cytotoxic, partial curve] | inconclusive: 33.5 µM [cytotoxic, single point] | inconclusive: 21.1 µM [cytotoxic, single point] |  |  | inconclusive: 9.78 µM [cytotoxic, partial curve] |  | inconclusive: 33.5 µM [cytotoxic, single point]
